Our source for the self-cleavage values is the RNAGym collection of RNA variant scans (doi:10.7554/elife.90254).

Read counts are not given, so values of variants with three or more changes are uncertain.

B1: LINE1-mini (parent)
chain: GGCAGAGCUCAACACAGCGUGGCAAAGUGGCUGUGGCUAGACUGCC

Variants of B1 are the subject of the data set. Nature of the data set: self-cleavage, relative activity (ratio to wild type); higher = more cleavage; in vitro, sequencing; the parent is a self-cleaving ribozyme.
With GGCAGAGCUAAACACAGGGUGGCAAAGUGGCUGUGGCUAGCCUGCC, the self-cleavage came to 0.04.

GGCAGAGCUAAACACAACGUGACAAAGUGGCUGUGUCUAGAGUGCC: the self-cleavage stood at 0.01.

Consider GGCAGAGCUAAACACAGCGUGGUAAAGUGGCUGCGGCUAGACUGCC, for which the self-cleavage came out at 0.03.

Consider GGCAGAGCUAAACAAAGCGUGGCAAAGUUGCUGUGUCUAGACUGCC, for which the self-cleavage amounted to 0.

With GGCAGAGCUAAACAAAGCGUGGCAAGGUGGCUGUGGCUGGACUCCC, the self-cleavage is 0.02.

For GGCAGAGCUAAACACACCGUGGCAAAGUGGCUGUUUCUAGACUGCC, the self-cleavage is 0.03.

Turning to GGCAGAGCUAAACACAGCGUGGCAAAGUGGCUGUGGUUAGACUCAC, the self-cleavage turned out to be 0.04.

For the variant GGCAGAGCUAAACACAGUGUGGCAAAGCGGCUGUGGCUAUACUGCC, the self-cleavage was 0.01.

For the variant GGCAGAGCUAAACACAUCCUGGCAAAGUGGCUGUGGUUAGACUGCC, the self-cleavage was found to be 0.01.

In the case of GGCAGAGCUAAACACAGCGUGGUAAAGUGGCUGUGCCUAGACUGCC, the self-cleavage is 0.01.

For GGCAGAGCUAAACACAGAGUGGCAGAGUGGCUAUGGCUAAACUGCC, the self-cleavage is 0.03.

As for GGCAGAGCUAAACACAGCGUGGCAAAGUGGCUGUGGGUAUACAGCC, the self-cleavage was 0.01.

Turning to GGCAGAGCUAAACACAGCGUGGCAAAGUGGGUGUGGCUAAUCCUCC, the self-cleavage worked out at 0.

As to GGCAGAGCUAAACACAGGGUGGCAAAGGGGCUUUGGUUAGACUCCC, the self-cleavage was 0.01.

In the case of GGCAGAGCUAAACAGAGCGUCGCAAAGUUGCUGUGGCUAGACUGCC, the self-cleavage stood at 0.02.

On to GGCAGAGCUAAACACAGUGUGGUAAUGUGGUUGUGACUAGACUGCC, for which the self-cleavage was determined as 0.01.

As to GGCAGAGCUAAACACAGGGUGGCAAAGUGGCUGUUGUUAGACUGAC, the self-cleavage is 0.01.

As for GGCAGAGCUAAACACAGCGUGGAAAAGUGGCUGAGGCUAGACUGCC, the self-cleavage came out at 0.

On to GGCAGAGCUAAACAGAGCGUCGCAAUGUGGCUGUGGCUAGACUGCC, for which the self-cleavage is 0.03.

On to GGCAGAGCUAAACACACGGUGGCAAAGCGGCUGUGGCUAGACUGCC, for which the self-cleavage was found to be 0.02.

Turning to GGCAGAGCUAAACAUGGCGUGGCAAAGUGGCCGUGGCUAGACUGCC, the self-cleavage worked out at 0.02.

Turning to GGCAGAGCUAAACACAACGUGACAAAGUGGCUGUGGCUAGGCUGCC, the self-cleavage turned out to be 0.04.

For GGCAGAGCUAAACACAGAGUGGCCAAGUGGCUGUGGCUAAACUGCC, the self-cleavage turned out to be 0.02.

In the case of GGCAGAGCUAAACACAGCGUGGCAAAGUGGUUGUGGCUAGAAUGAC, the self-cleavage turned out to be 0.02.

With GGCAGAGCUAAACACAGCGUGGCAAAGUGGCUGUGGAUAGGCUGCC, the self-cleavage was determined as 0.04.

For GGCAGAGCUAAACACAGUGUGGUAAAGUGGCUGUGGCCAGACUGCC, the self-cleavage was determined as 0.03.

For the variant GGCAGAGCUAAACACAGCGUGGCAAAGUGGAUGUGGCUAGCCUGCC, the self-cleavage was found to be 0.02.

As for GGCAGAGCUAAACAAAGCGUGGCAAAGUUGGUGUGGCUAGACUGCC, the self-cleavage came to 0.03.

Consider GGCAGAGCUAAACACAGCGUGGCAAAGUGGUUGAGGCUAGACUUCU, for which the self-cleavage came to 0.

Regarding GGCAGAGCUAAACAUAGCGUGGCAAAGUGGCUGGGGCUAGACUGCC, the self-cleavage came out at 0.02.

For GGCAGAGCUAAACAUAGCGUAGCAAAGUAGCUGUGGCUAGACUGCG, the self-cleavage was 0.03.

Turning to GGCAGAGCUAAACACAGAGUGGCAUAGUGAUUGUGGCUAGACUGCC, the self-cleavage turned out to be 0.02.

With GGCAGAGCUAAACAAAGCGUGGGAAAGUGGCUGUGGCUAGAGUGCC, the self-cleavage was 0.01.

GGCAGAGCUAAACACAGGGUGGCAGAGUGGCUGUGGCUAGACUGCC: the self-cleavage was found to be 0.

For GGCAGAGCUAAACAAAGCGUGGCAAAGUGGCUGUGGCUAGCGGGCC, the self-cleavage was found to be 0.02.

Regarding GGCAGAGCUAAACAAAGCGUUGCAAAGUCGCUGUGGCUAGCCUGCC, the self-cleavage was 0.

As to GGCAGAGCUAAACACAGCGUGGCAAAGUGGCUGUGGUCAGUCUGCC, the self-cleavage is 0.

On to GGCAGAGCUAAACACAUCGUGGCAACGUGGCUGUGGUUAGACUGCC, for which the self-cleavage came out at 0.

With GGCAGAGCUAAACAAAGCGUUGCAAAGUGGCUGUGGCUAGAUUGAC, the self-cleavage amounted to 0.01.

For the variant GGCAGAGCUAAACACAGGGUGGCAAAGUGUCUGUGGCUAGACCGCC, the self-cleavage was found to be 0.01.

For the variant GGCAGAGCUAAACACAGGGUGGCAAAGUGGCGGUGGCUAGACUGCU, the self-cleavage was found to be 0.16.

For the variant GGCAGAGCUAAACACAGCGUGGCAAAGUGGCUGUGGUUCGUCUGCC, the self-cleavage amounted to 0.06.

GGCAGAGCUAAACACAGUGUGGCAAAUUGGUUGUAGUUAGACUGCC: the self-cleavage amounted to 0.01.

Consider GGCAGAGCUAAACACAUCAUGGCAAAGUGGCUGUGGCUAGACUGCC, for which the self-cleavage turned out to be 1.34.

As for GGCAGAGCUAAACACAGUGUGGCAAAGUGGCGGUGGCUAGAUUGCC, the self-cleavage came to 0.01.

As to GGCAGAGCUAAACAUAACUUGGCAAAGUGGCUGUGGCUAGGCUGCC, the self-cleavage was 0.03.

For the variant GGCAGAGCUAAACACAGGGUGGCAAAGUGGCUGUUGCUAUACUGCC, the self-cleavage is 0.05.

As to GGCAGAGCUAAACACAGCGUGGGAAAGUGGCAGUGGCUAGACUGCC, the self-cleavage amounted to 0.01.

On to GGCAGAGCUAAACACAUCGUGGCAAAGUGGCUGUGGCUAGACUGCG, for which the self-cleavage worked out at 0.02.

For the variant GGCAGAGCUAAACACAGCGUGGCAAAGUGGUUGUGGCUUGAAUGCC, the self-cleavage stood at 0.02.

GGCAGAGCUAAACACAGCGUGGUAAAGUGGCUGUGGCUAGAUUGCC: the self-cleavage came to 0.03.

On to GGCAGAGCUAAACAAAGCGUGGCAAAGUGGCUGUGGCUAGACUGCA, for which the self-cleavage came out at 0.07.

Regarding GGCAGAGCUAAACAAAGCGUGGCAAAGUGGUUGUGGCUCGACUGCC, the self-cleavage turned out to be 0.02.

For GGCAGAGCUAAACAGAGCUUGGAAAAGUGGCUGUGGCUAGACUGCC, the self-cleavage was determined as 0.02.

Regarding GGCAGAGCUAAACAGAGCGUGGCAAAGUGACUUUGGCUAGACUGCC, the self-cleavage came out at 0.03.

Consider GGCAGAGCUAAACACAGCGUGGAAAAGUGGCUGUGGGUAGACUGCU, for which the self-cleavage stood at 0.02.
